Results published in article PMC4336329 (PLoS ONE, 2015).
Among all 310,000 compounds or so, about 14,000 (4.5%) showed an effect of 50% or more. Effects have a minus sign here. This is one part of the list.

Each compound was assayed against human ether-à-go-go-related gene (hERG) potassium channel (human, UniProt Q12809) (assay: primary screen, population patch clamp on CHO cells stably expressing hERG).
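Note: peak tail current of the secondary pulse compared with the same well before compound.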

Chain of human ether-à-go-go-related gene (hERG) potassium channel (Q12809 whole entry, looked up): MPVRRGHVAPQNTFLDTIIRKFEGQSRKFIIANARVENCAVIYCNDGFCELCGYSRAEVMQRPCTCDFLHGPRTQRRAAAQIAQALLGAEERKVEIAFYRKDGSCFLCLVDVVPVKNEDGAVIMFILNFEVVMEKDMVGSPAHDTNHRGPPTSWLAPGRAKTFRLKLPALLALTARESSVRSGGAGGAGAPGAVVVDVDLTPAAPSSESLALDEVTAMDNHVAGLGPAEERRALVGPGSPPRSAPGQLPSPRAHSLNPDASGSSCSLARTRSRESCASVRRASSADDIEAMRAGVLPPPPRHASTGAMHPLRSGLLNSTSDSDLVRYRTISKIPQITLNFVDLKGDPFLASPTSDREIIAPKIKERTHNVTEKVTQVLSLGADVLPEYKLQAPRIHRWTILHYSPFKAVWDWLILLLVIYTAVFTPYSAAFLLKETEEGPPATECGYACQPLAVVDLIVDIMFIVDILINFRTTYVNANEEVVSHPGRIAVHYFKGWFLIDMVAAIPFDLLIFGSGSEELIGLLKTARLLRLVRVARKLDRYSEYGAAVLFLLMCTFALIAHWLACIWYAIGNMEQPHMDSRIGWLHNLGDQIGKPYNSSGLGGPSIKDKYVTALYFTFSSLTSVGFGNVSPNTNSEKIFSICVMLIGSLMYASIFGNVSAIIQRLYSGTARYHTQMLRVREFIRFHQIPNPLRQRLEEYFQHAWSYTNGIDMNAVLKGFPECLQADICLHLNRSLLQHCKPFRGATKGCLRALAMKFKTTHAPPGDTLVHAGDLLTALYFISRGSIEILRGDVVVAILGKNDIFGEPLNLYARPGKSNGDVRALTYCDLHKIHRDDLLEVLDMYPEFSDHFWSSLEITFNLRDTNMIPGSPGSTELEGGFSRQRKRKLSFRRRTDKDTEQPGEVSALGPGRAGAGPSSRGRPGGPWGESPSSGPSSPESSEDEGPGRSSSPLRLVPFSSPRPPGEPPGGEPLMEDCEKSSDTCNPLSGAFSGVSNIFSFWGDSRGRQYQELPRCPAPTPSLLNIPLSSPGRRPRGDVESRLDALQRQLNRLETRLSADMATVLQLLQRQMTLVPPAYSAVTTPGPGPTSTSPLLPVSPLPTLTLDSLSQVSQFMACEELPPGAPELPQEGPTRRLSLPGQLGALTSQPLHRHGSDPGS

Compound	hERG current change (%, negative = inhibition) at 10uM
CCc1ccc(/C=N/NC(=O)C(=O)NCCCN2CCOCC2)cc1	-23.6%
COc1ccc(CCn2ccc(O)c(Cc3c(F)cccc3Cl)c2=O)cc1OC	9.71%
COc1ccc(Cl)cc1-n1c(N)c(C(N)=O)sc1=S	7.72%
COc1ccc(-c2csc(NC(=O)c3ccccc3F)c2C(=O)O)cc1	24.2%
Cc1nc2ccccn2c1/C(O)=C1\C(=O)C(=O)N(CCN(C)C)C1c1cccnc1 (stereo not shown)	2.34%
COc1cccc(C(=O)OCCCN(C)C)c1.Cl	-1.4%
CC/C(=N\O)c1ccc(O)c(OC)c1	8.07%
COc1ccc(-c2nnc(SCC(=O)c3ccc(O)cc3O)o2)cc1	7.26%
COc1ccc(/C=C/C(=O)OCC(=O)Nc2ccc(OC)c(S(=O)(=O)N3CCCCC3)c2)cc1	2.08%
CC(C)(C)C(=O)Nc1cccc(OC(F)(F)C(F)Cl)c1 (stereo not shown)	-17.8%
C/C(N)=C(/C#N)C(=O)COC(=O)c1cccc(C)c1O	22%
Oc1cc2c(cc1CN1CCN(c3ccccc3)CC1)CCC2	-5.78%
CC(C)(C)c1ccc(C2(C)NC(=O)N(CC(=O)NCc3cccs3)C2=O)cc1 (stereo not shown)	9.46%
Cn1c(=O)oc2cc(S(=O)(=O)NCCC(=O)NCc3ccccc3Cl)ccc21	8.46%
CC1(C)CC(=O)C=C(c2cccnc2)C1	1.73%
COC(=O)CSc1nc(-c2ccccc2)nc2ccccc12	14.3%
C=CCn1c(-c2ccc(OC)c(OC)c2)n[nH]c1=S	18.7%
COc1cc(C2C(C#N)=C(N)OC3=C2C(=O)CC(C)(C)C3)c([N+](=O)[O-])cc1OC (stereo not shown)	1.19%
CCCNC(=O)c1ccc(N2CCC3(CC2)CC(c2cccc(Br)c2)=NO3)c(NC(=O)c2ccco2)c1	-7.9%
CC(C)(C)N(NC(=O)c1ccccc1)C(=O)c1cccc(C(=O)N(NC(=O)c2ccccc2)C(C)(C)C)c1	12.9%
CCOc1ccc(C(=O)CCC(=O)N2CCN(c3ncccn3)CC2)cc1	-19.8%
CCOC(=O)C1=C(c2ccccc2)Nc2ncnn2C1c1ccc(OC)c(OC)c1OC (stereo not shown)	-5.55%

Compound	hERG current change (%, negative = inhibition) at 10uM
CN(CCC1CCOCC1)Cc1cn[nH]c1-c1ccc(-c2ccccc2)cc1	-62.6%
CCC(C)(C)NC(=O)COc1ccc(OCc2ccccc2)cc1	8.44%
Cn1c(=O)c(C=Nc2ccccc2)c(O)c2ccccc21	-3.84%
O=C(CSCc1c(F)cccc1Cl)NCC1CCCO1 (stereo not shown)	-6.44%
CN(C)C(=O)c1ccc(NC(=O)c2ccccc2Sc2ccccc2C#N)cc1	1.57%
COc1cc(-c2nc(S(=O)(=O)c3ccc(Cl)cc3)c(N3CCOCC3)o2)cc(OC)c1OC	-3.17%
COc1ccc(C(CC(=O)Nc2nccs2)C(C)C)cc1 (stereo not shown)	-4.5%
CC(C)CC(=O)Nc1cc(NC(=O)CC(C)C)cc(C(=O)NC(C)(C)C)c1	9.08%
CSc1nc(C)cc(NC(N)=O)n1	7.02%
CCC(=O)N1c2ccc(S(=O)(=O)CCC(=O)N3CCN(c4ccccc4)CC3)cc2CC1C (stereo not shown)	4.07%
C=CCSc1nc(N)c(NC(=O)c2ccco2)c(=O)[nH]1	7.05%
CC1CCCC(C)N1C(=O)COC(=O)C1CCN(S(=O)(=O)c2ccc3c(c2)OCCO3)CC1 (stereo not shown)	-8.5%
CCOC(=O)c1sc(NC(=O)CC(C)c2ccccc2)nc1C (stereo not shown)	10.3%
CCOC(=O)c1cn(Cc2cccc(C)c2)nn1	-11.4%
COc1ccccc1Nc1nnc(SCC(=O)Nc2nc(-c3ccc(F)cc3)cs2)s1	37.4%
COc1ccccc1-c1nn2c(C(F)(F)F)nnc2s1	14.8%
COCOc1cc(O)c2c(=O)c(OCOC)c(-c3ccc(OCOC)c(OCOC)c3)oc2c1	-25.3%
COc1ccc(OC)c(NC(=O)CCCNC(=O)c2ccc(Cl)cc2)c1	-9.27%
COC(=O)c1sc(NC(=O)CSc2nncs2)c(C(=O)OC)c1C	10.7%
Cc1noc(C)c1CSc1nc2[nH]ncc2c(=O)n1-c1ccccc1	-20.8%
COc1ccc(OCCNc2c([N+](=O)[O-])c(=O)oc3ccccc23)cc1	-12.2%
O=C1CS(=O)(=O)N(Cc2cccc(F)c2)c2ccc(Br)cc21	-5.02%

Compound	hERG current change (%, negative = inhibition) at 10uM
CCOc1ccc(N(CC(=O)NCc2ccc(F)cc2)S(=O)(=O)c2c(C)noc2C)cc1	-4.62%
Cc1cc(/C=C(\C#N)C(=O)NCc2ccco2)c(C)n1-c1cccnc1	-23.2%
Cc1cccc(C2N(c3ccc(F)cc3)C(=O)C3CCCN32)c1 (stereo not shown)	-12.3%
COc1ccc(Cl)c2c1[nH]c1nc(SCc3ccccn3)nnc12	21.8%
Cc1ccc(NC2=CC(=O)C(=O)c3ccccc32)cc1	-5.46%
CCCN1CCC(=O)N([C@H](CSc2ccccc2)CC(C)C)CC1	-66.4%
Cc1ccc([N+](=O)[O-])cc1N=Cc1ccc(Br)s1	-9.5%
Cc1nc(S(=O)(=O)c2ccc(Cl)cc2Cl)nc2c1CCC2	3.48%
CCCCOC(=O)c1ccc(NC(=O)c2c(OC)cccc2OC)cc1	3.8%
Nc1nonc1-n1nnc(C(=O)N/N=C/c2ccco2)c1CSc1ccccc1	14%
COc1cc(C(=O)NCc2nnc(SCC(=O)Nc3ccc4c(c3)OCO4)o2)cc(OC)c1OC	29.5%
c1ccc(NC2=NCCN2CC2CCCCCC2)cc1	-11.1%
COc1ccc2nc(C)[nH]c(=O)c2c1	9.19%
Cc1ccc(OCc2nc(-c3cccnc3)no2)cc1C	4.82%
CC(C)CC(=O)NC1(C(F)(F)F)C(=O)N(Cc2ccccc2)C2=C1C(=O)CC(C)(C)C2 (stereo not shown)	-6.75%
COc1ccc(OC)c(S(=O)(=O)N2CCC3(CC2)OCCN3S(=O)(=O)c2cccs2)c1	-42.8%
N#Cc1c(NC(=O)c2ccc(N3CCOCC3)c([N+](=O)[O-])c2)sc2c1CCCC2	2.29%
CN1CCN(C(=O)CCS(=O)(=O)c2cc3c(cc2Cl)NC(=O)CO3)CC1	9.8%
CC(=O)Nc1ccccc1/C=C/c1ccc2c(C)cc(C)c(O)c2n1	16.8%
Cn1cccc1C(C#N)c1ncc(C(F)(F)F)cc1Cl (stereo not shown)	-2.06%
CCc1ccc(CNC(=O)CCS(=O)(=O)Cc2ccccc2F)cc1	10.8%
O=C(Nc1ccc(F)cc1)c1oc2ccccc2c1NC(=O)C1CC1	-1.77%

Compound	hERG current change (%, negative = inhibition) at 10uM
COc1ccc(OC)c(-n2c(O)c(/C=C3\C=Nc4ccccc43)c(=O)[nH]c2=O)c1	7.03%
CCCC(=O)Nc1ccc(C(=O)Nc2nnc(COCC)s2)cc1	16.8%
O=C(Nc1ccc(O)cc1)c1cc2n(n1)C(C(F)(F)F)CC(c1ccco1)N2 (stereo not shown)	-5.45%
Cc1nnc(NC(=O)CSc2nnc(Cc3cccn3C)n2CCc2ccccc2)s1	-13.5%
CCOC(=O)C1CCCN(C(=O)c2cc(-c3ccc(C)cc3)on2)C1 (stereo not shown)	-44.6%
COc1ccccc1OCCSc1nc2ccccc2n1CCC(=O)O	13.2%
COc1ccc([N+](=O)[O-])cc1N(CC(=O)NCCSc1ccc(C)cc1)S(C)(=O)=O	-25.3%
COc1ccc(NC(=O)CN(C)CC(=O)Nc2ccc(Cl)c(S(=O)(=O)N(C)C)c2)cc1	-20.7%
CC1CCCN(C(=O)C2CCN(S(=O)(=O)c3cccc4nonc34)CC2)C1 (stereo not shown)	3.61%
Cc1nc(SCc2nc3ccccc3[nH]2)c2oc3ccccc3c2n1	1.04%
CC(=O)c1cc(-c2ccc(F)cc2)n(CC(=O)NCc2cccs2)c1C	-5.31%
O=C(Cc1ccccc1Cl)NCc1cccnc1	19.3%
Cc1nn(CC(=O)N2CCCCC2)c(=O)c2nn(-c3ccccc3)c(C)c12	19.2%
CC1CN(S(=O)(=O)c2ccc(C(=O)Nc3nnc(-c4ccc5c(c4)CCCC5)o3)cc2)CC(C)O1 (stereo not shown)	0.158%
Nc1cc(C(F)(F)F)ccc1C(=O)O	0.434%
COc1cccc(CN2CCN(C(=O)c3cccc(OC)c3)CC2)c1.O=C(O)C(=O)O	9.62%
CC(OC(=O)c1ccco1)C(=O)NC1CCCCC1 (stereo not shown)	-3.72%
Cc1onc(-c2ccccc2)c1C(=O)N1CCC(C)CC1	3.2%
O=C(Nc1ncccc1O)c1ccc2ccccc2c1	17%
Cc1cccc(C)c1OCc1cc(C(=O)N2CCCC2c2nonc2C)no1 (stereo not shown)	2.3%
COc1ccc(S(=O)(=O)NCc2ccncc2)cc1NC(=O)c1ccccc1C	-36.6%
COc1ccc(C)cc1NC(=O)c1nn(C)c(C(=O)Nc2cc(C)ccc2OC)c1[N+](=O)[O-]	1.17%
